# Assay results from patent US20250243260A1.
# Positions count from the first letter of the chain named.
# B1: CD80_186-Fc (Fc fusion)
# chain: VIHVTKKVKEWATLSCGHNVSVEELAQTRIYWQKEKKMVLTMMSGDMNIWPEYKNRTIFDITHNLSIVILGLRPSDEGTYECVVLKKEKDAFKREHLAEVTLSVKADGSGGGGS[omitted - human IgG4 Fc with S228P (EU numbers)]
# B2: CD80_192-Fc (Fc fusion)
# chain: B1 chain with K7N, W11V, E35D, H63N, G71A, K87Y, T101R
# B3: CD80_213-Fc (Fc fusion)
# chain: B1 chain with K7E, W11Y, H63N, V68T, G71A, K87Y
# B4: CD80_227-Fc (Fc fusion)
# chain: B1 chain with K7E, T28H, D46Q, H63N, V68L, G71A, L85E, K87Y
# B5: CD80_167-Fc (Fc fusion)
# chain: B1 chain with K7E, W11Y, M42I, M47V, H63N, K87Y
# B6: CD80_202-Fc (Fc fusion)
# chain: B1 chain with K7H, W11V, H18L, V20I, T28Y, D46S, H63N, K87Y
# B7: CD80_226-Fc (Fc fusion)
# chain: B1 chain with K7E, K9R, W11V, A26T, T28Y, E35A, M47L, H63N, K87Y
# B8: CD80_204-Fc (Fc fusion)
# chain: VIHVTKEVKEVATLSCGVNISVEELAQYRIYWQKGKKMVLTMMSGDVNIWPEYKNRTIFDITNNLSIVILALEPSDEGTYECVVLKYEKDAFKREHLAEVTLSVKADGSGGGGS[omitted - human IgG4 Fc with S228P (EU numbers)]
# B9: CD80_170-Fc (Fc fusion)
# chain: B8 chain with K9N, E10G, V18H, I20V, Y28T, D46E, V68M, E73R
# Target: human PD-L1 (human) (UniProt Q9NZQ7)
# Assay: flow cytometry, SCC152/PD-L1 cells
# UniProt Q9NZQ7, sequence (Q9NZQ7 19-290): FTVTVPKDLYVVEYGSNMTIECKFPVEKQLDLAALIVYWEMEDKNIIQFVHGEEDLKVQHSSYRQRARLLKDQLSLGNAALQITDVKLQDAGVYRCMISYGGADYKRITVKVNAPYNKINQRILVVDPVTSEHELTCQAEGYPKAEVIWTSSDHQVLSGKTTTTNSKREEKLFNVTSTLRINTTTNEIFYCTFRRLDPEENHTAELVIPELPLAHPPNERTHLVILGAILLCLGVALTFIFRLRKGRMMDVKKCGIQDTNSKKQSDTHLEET
Anti-Human Fc (MFI) at 0.8 nM,Anti-Human Fc (MFI) at 4 nM,Anti-Human Fc (MFI) at 20 nM,Anti-Human Fc (MFI) at 100 nM,fold change vs WT CD80 @20 nM,Binder
762 MFI,766 MFI,900 MFI,1180 MFI,–,B1
607 MFI,661 MFI,818 MFI,1120 MFI,1.2 fold,B2
792 MFI,839 MFI,1024 MFI,1180 MFI,–,B3
720 MFI,756 MFI,943 MFI,–,–,B4
643 MFI,665 MFI,736 MFI,1140 MFI,–,B5
700 MFI,789 MFI,951 MFI,1140 MFI,–,B6
949 MFI,1130 MFI,1180 MFI,1370 MFI,–,B7
662 MFI,665 MFI,831 MFI,1300 MFI,1.2 fold,B8
843 MFI,976 MFI,1070 MFI,1220 MFI,–,B9
